Measured values taken from PubChem BioAssay AID1671194 (National Center for Advancing Translational Sciences (NCATS), 2021).
Among all 140,000 compounds or so, about 240 (0.17%) were called active. This list was built around the results that the source calls inconclusive (neither active nor inactive); the mix of calls is not that of the screen. Calls come from the whole dose curve; as a rule, active = well fitted inhibition curve with a large enough effect; inconclusive = small, poorly fitted or top-dose-only effect; inactive = no such curve, though single readings can be large or run the other way. A potency beside an inconclusive call is a rough fit, not a confirmed value.

Assay: Primary qHTS assay for inhibitors of alpha-synuclein gene (SNCA) expression; note: nearly all actives have a fitted effect of over 45% in size
Conditions: HEK-293 SNCA-luciferase knock-in, luminescence, 24 h; series mostly up to 57.2 µM
Potency is the fitted concentration of half-maximal effect; tags give direction and shape of the fitted curve.

| SMILES | Potency |
| --- | --- |
| CNC(=O)[C@@H]1C[C@H](Oc2ccccc2)CN1C(=O)CCc1c[nH]c2ccccc12 | inconclusive: 1 µM [inhibitor, full curve] |
| CNC(=O)C1CCCCN1Cc1ccc(-c2cccs2)cc1 (stereo not drawn) | inactive |
| FC(F)(F)c1cccc(Nc2cnc3ccc(-n4ccnc4)nn23)c1 | inconclusive: 2 µM [inhibitor, partial curve, poor fit] |
| O=C(NCc1cccs1)C1CCCN(Cc2cccc(-c3cccs3)c2)C1 (stereo not drawn) | inconclusive: 39.8 µM [inhibitor, single point] |
| CN1CCCC1c1nc(C2CN(S(=O)(=O)Cc3ccccc3F)C2)no1 (stereo not drawn) | inconclusive: 12.6 µM [inhibitor, partial curve, poor fit] |
| O=C(Nc1cccc(F)c1)N1CC2CC(C1)[C@H]1CCCC(=O)N1C2 (stereo partly drawn) | inconclusive: 5.62 µM [inhibitor, partial curve, poor fit] |
| O=C(c1cc[nH]c1C1CCCNC1)N(Cc1ccc(F)cc1)Cc1cccnc1 (stereo not drawn) | inconclusive: 39.8 µM [inhibitor, single point] |
| Cn1ncc2c(C(=O)N3CCCCC3)cc(-c3ccc(Cl)cc3Cl)nc21 | inconclusive: 39.8 µM [inhibitor, single point] |
| O=C(c1ccc(F)cc1)N1CCCC(C(=O)N2CCCC(c3nc4ccncc4[nH]3)C2)C1 (stereo not drawn) | inactive |
| NC1CCCCN(C(=O)CCc2nc3ccccc3[nH]c2=O)C1 (stereo not drawn) | inactive |
| Cc1cc(F)ccc1S(=O)(=O)Nc1ccc2c(c1)CCCN2C(=O)c1cccs1 | inconclusive: 2.24 µM [inhibitor, full curve] |
| Cc1ccc(Cl)cc1N1CCN(C(=O)c2cc(S(=O)(=O)N3CCCC3)cn2C)CC1 | inconclusive: 39.8 µM [inhibitor, single point] |
| CCOC(=O)CNC(=O)N1CCC(N2C(=O)C3(CCCCC3)C2c2ccncc2)CC1 (stereo not drawn) | inconclusive: 1.41 µM [inhibitor, full curve, poor fit] |
| CCC(Cc1ccccc1)NC(=O)Cn1ncc2c3ccccc3n(Cc3ccccc3)c2c1=O (stereo not drawn) | inconclusive: 3.55 µM [inhibitor, full curve, poor fit] |
| Cc1nn2c(c1-c1ccccc1[S+](C)(=O)[O-])N(CCCc1ccccc1)CCC2 | inconclusive: 3.55 µM [inhibitor, full curve, poor fit] |
| CCc1cccc(N2C(=O)N(CC(=O)NCc3cccc(OC)c3OC)c3ccccc3S2(=O)=O)c1 | inconclusive: 7.08 µM [inhibitor, single point] |
| FC(F)(F)Oc1ccc(Nc2cnc3ccc(N4CCOCC4)nn23)cc1 | inactive |
| O=C(NCc1cccc(Cl)c1)c1ccc2nnc(-c3cc(C(F)(F)F)cc(C(F)(F)F)c3)n2c1 | inconclusive: 10 µM [inhibitor, partial curve] |
| O=C(c1ccc2nnc(-c3ccc(Cl)cc3)n2c1)N1CCN(Cc2ccccc2)CC1 | inconclusive: 39.8 µM [inhibitor, single point] |
| O=C(NCCc1ccncc1)c1coc(COc2ccc(F)cc2Cl)n1 | inconclusive: 39.8 µM [inhibitor, single point] |
| CCn1c(C2CCN(C(=O)CC34CC5CC(CC(C5)C3)C4)CC2)n[nH]c1=O | inconclusive: 1.26 µM [inhibitor, full curve] |

| SMILES | Potency |
| --- | --- |
| COc1ccc(OC)c(NC(=O)CN(C)S(=O)(=O)c2ccc3[nH]c4c(c3c2)CCCC4)c1 | inconclusive: 28.2 µM [inhibitor, single point] |
| CCOC(=O)c1cccc(NC(=O)NCc2ccc3c(c2)CCN3C(=O)c2ccccc2)c1 | inconclusive: 31.6 µM [inhibitor, single point] |
| CN(C)c1cccc(C(=O)N2CCC(n3cc(-c4nc(-c5ccccc5)no4)nn3)C2)c1 (stereo not drawn) | inconclusive: 39.8 µM [inhibitor, single point] |
| CS(=O)(=O)N(Cc1ccco1)CC(O)Cn1c2ccccc2c2ccccc21 (stereo not drawn) | inconclusive: 42.9 µM [inhibitor, single point] |
| O=C(NCc1cccc(Cl)c1)c1ccc2nc(-c3ccncc3)oc2c1 | inconclusive: 12.6 µM [inhibitor, single point] |
| CC(C)C(=O)N1CCC(COc2ccc3c(cnn3CC[S+](C)(=O)[O-])c2)CC1 | inconclusive: 3.98 µM [inhibitor, partial curve, poor fit] |
| CC(C)n1cnnc1CC1CCN(C(=O)Cc2c[nH]c3ccccc23)C1 (stereo not drawn) | inconclusive: 2 µM [inhibitor, partial curve, poor fit] |
| O=C(c1ccc(F)cc1)N1CCCN(c2ccnc3ccnn23)CC1 | inconclusive: 3.55 µM [inhibitor, full curve] |
| COc1ccc(Cl)cc1-n1nnc(-c2nsc(NC(=O)c3ccccc3Cl)n2)c1C | inconclusive: 7.08 µM [inhibitor, single point] |
| Cc1ccc(NS(=O)(=O)c2ccc3c(c2)CCCN3C(=O)C2CCC2)c(C)c1 | inactive |
| COCCNC(=O)[C@H]1C[C@H](Oc2ccccc2)CN1C(=O)c1cccs1 | inactive |
| COc1ccccc1-c1nc(N(C)C)c2ccccc2n1 | inconclusive: 25.1 µM [inhibitor, partial curve, poor fit] |
| O=C(CN1CC2CC(C1)[C@H]1CCCC(=O)N1C2)N1CCSCC1 (stereo partly drawn) | inconclusive: 2.51 µM [inhibitor, full curve, poor fit] |
| CCOc1ccccc1CNC(=O)C1CCN(S(=O)(=O)c2ccc3c(ccn3C)c2)CC1 | inconclusive: 8.91 µM [inhibitor, partial curve, poor fit] |
| Cc1nn2c(c1-c1cccnc1N1CCOCC1)N(CC1CCOCC1)CCC2 | inconclusive: 7.08 µM [inhibitor, full curve, poor fit] |
| COc1ccc(CN2CCN(c3ncnc4sc5c(c34)CC(C)CC5)CC2)cc1F (stereo not drawn) | inconclusive: 10 µM [inhibitor, partial curve] |
| COc1cc(F)ccc1-c1cnc2n[nH]c(-c3ccc4c(c3)OCO4)c2n1 | inconclusive: 39.8 µM [inhibitor, single point] |
| COc1ccc(NS(=O)(=O)c2ccc3[nH]c4c(c3c2)CCCC4)cc1Cl | inconclusive: 15.8 µM [inhibitor, single point] |
| Cc1cc(C[C@@H]2COC[C@@H]2NC(=O)C2CCN(C(=O)C3CC3)CC2)on1 | inconclusive: 8.91 µM [inhibitor, single point] |
| COc1ccc(C(=O)N2CCC(Cc3nc(-c4ccccc4)no3)CC2)cc1OC | inconclusive: 28.2 µM [inhibitor, single point] |
| CN1CCN(c2ncnc3sc4c(c23)CCNC4)CC1 | inconclusive: 15.8 µM [inhibitor, partial curve, poor fit] |

| SMILES | Potency |
| --- | --- |
| COc1ccccc1-c1ccnc(N[C@H]2CO[C@H]3[C@@H]2OC[C@@H]3NS(=O)(=O)c2ccc(NC(C)=O)cc2)n1 | inactive |
| O=C(O)C1(CCc2ccccc2)CCCN(c2ncnc3nc[nH]c23)C1 (stereo not drawn) | inactive |
| C1=CCOCc2cc(ccc2OCCN2CCCC2)Nc2nccc(n2)-c2cccc(c2)OCC1 | inconclusive: 38.3 µM [inhibitor, single point] |
| Cc1cccc(-c2cccc(CN3CCC(NC(=O)c4ccc(F)cc4)CC3)c2)c1 | inactive |
| CC(C)c1ccc(OCc2nc3c(n2Cc2ccccc2)C(=O)N(CC2CC2)CCN3)cc1 | inconclusive: 3.98 µM [inhibitor, partial curve, poor fit] |
| COc1cccc(N2CC(C(=O)NCCCc3ccccc3)NC2=O)c1 (stereo not drawn) | inactive |
| C[S+](=O)([O-])N1CCCC1C(=O)N1CCC(N2Cc3ccccc3C2=O)CC1 (stereo not drawn) | inactive |
| C[C@@H]1CN(C(=O)c2cnc3c(O)cccn3c2=O)CC[C@@]1(O)C1CCC1 | inactive |
| c1ccc(-c2nnc3ccc(NC4CCC4)nn23)nc1 | inactive |
| COc1cc(OC)cc(C(=O)N2CCC3(CC2)N(C)C(=O)CS3(=O)=O)c1 | inconclusive: 0.708 µM [inhibitor, full curve, poor fit] |
| COc1cccc(Cn2c(=O)c(-c3ccc(Cl)cc3)nc3cnc(N4CCNCC4)nc32)c1 | inconclusive: 14.1 µM [inhibitor, partial curve, poor fit] |
| COc1ccccc1CCC(=O)N1CCC(Cc2nc(-c3ccc(F)cc3)no2)CC1 | inconclusive: 39.8 µM [inhibitor, single point] |
| CC(=O)NC1(C)CCN(Cc2ccc(-c3ccc4ccccc4c3)cc2)C1 (stereo not drawn) | inconclusive: 31.6 µM [inhibitor, partial curve, poor fit] |
| Cc1cccc(CN2CCCC3(CCN(C(=O)c4ccc(=O)[nH]c4)C3)C2=O)c1 (stereo not drawn) | inactive |
| CCn1c2ccccc2c2cc(C(=O)N3CCCCCCNC(=O)CC3)ccc21 | inactive |
| Cc1nn2c(c1-c1ccccc1C(N)=O)N(C(=O)c1ccccc1)CCC2 | inactive |
| CC(C)c1noc(-c2cn(C3CCN(C(=O)c4cccc5[nH]ccc45)C3)nn2)n1 (stereo not drawn) | inconclusive: 3.16 µM [inhibitor, single point] |
| CCc1ccccc1Nc1cc(C(=O)NC(C)c2ccccc2)c2ccccc2n1 (stereo not drawn) | inconclusive: 39.8 µM [inhibitor, single point] |
| CC(C)(C)CC(=O)N[C@H]1CC(C)(C)[C@@H]2C[C@@](C)(O)CC[C@]12CCC(=O)NCCc1c[nH]c2ccccc12 | inactive |
| Cc1ccc(C)c([S+](=O)([O-])c2nnn3c2nc(NC2CC2)c2ccccc23)c1 | inactive |
| Oc1ccc(-c2nc(C3CC3)nc3c2CN(Cc2cccc4ccccc24)CC3)cc1 | inconclusive: 39.8 µM [inhibitor, single point] |
